From the RNAGym collection of RNA variant scans (doi:10.7554/elife.90254)
The source gives no read counts; variants with many changes may rest on few reads.

B1: LINE1-mini (parent)
chain: GGCAGAGCUCAACACAGCGUGGCAAAGUGGCUGUGGCUAGACUGCC

Variants of: B1
Test: self-cleavage, relative activity (ratio to wild type); higher = more cleavage; in vitro, sequencing; the parent is a self-cleaving ribozyme
C8G C15A C23A A25C A26G showed a self-cleavage of 0.08. Work on C8G A24G G35A yielded a self-cleavage of 0.03. Work on C8G G30U C31U C37U yielded a self-cleavage of 0.11. For C8A G17U G21U G29U, the self-cleavage was 0.09. With C8A G35C G44A the self-cleavage was 0.19. C8G A11C A26C gave a self-cleavage of 0.03. Work on C8A G22C U43A yielded a self-cleavage of 0.45. Variant C8G G22A G27U C46U has a self-cleavage of 0. With C8A A25C C42A the self-cleavage was 0.09. With C8G A14C C23A A26C C42A the self-cleavage was 0.06. C8A A16U U20C showed a self-cleavage of 0.04. With C8A G22C A39U the self-cleavage was 0.03. C8A C13A G17A gave a self-cleavage of 0.14. In the case of C8G C23A G27C, the self-cleavage is reported as 0.06. C8A C13U G27U U43C showed a self-cleavage of 0.22. Work on C8G A11G U20C yielded a self-cleavage of 0.02. C8G A14G G35U G44U gave a self-cleavage of 0.02. C8G C23U A26U gave a self-cleavage of 0.07. Work on C8G G35U G44U C46G yielded a self-cleavage of 0.01. Work on C8G C15U G33U G35A G40U yielded a self-cleavage of 0.17. In the case of C8G A16U G22A G29A A39C, the self-cleavage is reported as 0.03. Variant C8U A11C C23G C31A C37U has a self-cleavage of 0. C8G G21A C46A showed a self-cleavage of 0.2. In the case of C8G A25U C31U, the self-cleavage is reported as 0.06. C8A A16U C31G showed a self-cleavage of 0.03. C8G C31U A39G C45A showed a self-cleavage of 0.04. For C8A G21U G30A C45U, the self-cleavage was 0.47. Variant C8A C15G C46U has a self-cleavage of 0.18. Work on C8G U9G C31U U32G yielded a self-cleavage of 0.02. C8A C10A C15A U28C A41G showed a self-cleavage of 0.04. With C8G C15G A16G G21C G36A C42U the self-cleavage was 0. With C8A C23U A39U the self-cleavage was 0.12. Variant C8A C10U U43A C45A has a self-cleavage of 0.05. C8G G22A A24G G29C G40U gave a self-cleavage of 0.01. With C8G G22U A26G the self-cleavage was 0.08. C8G A39U A41U showed a self-cleavage of 0.19. In the case of C8G G22C U28C C31U U38A A39C C46A, the self-cleavage is reported as 0.06. Variant C8A C15U C46A has a self-cleavage of 0.13. For C8G A14C G19U, the self-cleavage was 0.02. For C8G A16U G21U C46U, the self-cleavage was 0.01. Variant C8G C10U C13G has a self-cleavage of 0. In the case of C8A C10G A11U A12C C13U G36U, the self-cleavage is reported as 0.04. Work on C8A C10G G17C A41G yielded a self-cleavage of 0. In the case of C8A C13G G35A, the self-cleavage is reported as 0.68. In the case of C8G G21A U32C U38A, the self-cleavage is reported as 0.15. With C8G G17A G27U G33A C37G C42A the self-cleavage was 0.02. C8U A11G U32C gave a self-cleavage of 0.02. C8G U9G U20C G29A showed a self-cleavage of 0.06. C8G C15U A25G C45U gave a self-cleavage of 0.15. C8G A14C U38A G44A gave a self-cleavage of 0.03. Variant C8A C13A G22C U38A G40A U43C has a self-cleavage of 0.02. In the case of C8G A11U C15A, the self-cleavage is reported as 0.01. C8G A11U C15U gave a self-cleavage of 0.01. With C8A U28C A39C the self-cleavage was 0.33. With C8A G27U G30U A39C the self-cleavage was 0.27. With C8G C15A C42A the self-cleavage was 0.02. C8G A14C A25C C31A G40A gave a self-cleavage of 0.01. With C8G C15G C18A G35U the self-cleavage was 0.01. Work on C8G C13G U32C A41U C46A yielded a self-cleavage of 0.69. Work on C8A G29A G30C G33U yielded a self-cleavage of 0.27. Variant C8U A11C G21A has a self-cleavage of 0.02. C8A G17U G27C C31U gave a self-cleavage of 0.33. In the case of C8A G33A G36U U38G, the self-cleavage is reported as 0.16. C8G U20G G33A G36A C46U gave a self-cleavage of 0.05. With C8A A24G C45U the self-cleavage was 0.21. In the case of C8G G40C C45U, the self-cleavage is reported as 0.02. In the case of C8A C15U G22A G35C U43G, the self-cleavage is reported as 0.47. C8G A39C G40C showed a self-cleavage of 0.05. Variant C8A A25G G35C U38A A39U has a self-cleavage of 0.29. C8G C10G G17U C18G showed a self-cleavage of 0.02. Work on C8A C15U U38C yielded a self-cleavage of 0.06. With C8G U20C A24U A26U G27A the self-cleavage was 0.07. For C8G C13G G21A, the self-cleavage was 0.04. C8A C18A C42G gave a self-cleavage of 0.14. C8A C31A G35U C37G showed a self-cleavage of 0.11. In the case of C8A C15U C31U, the self-cleavage is reported as 0.32. C8A C15U C31A showed a self-cleavage of 0.19. C8G A26C G33U showed a self-cleavage of 0.02. C8G C42U C45G showed a self-cleavage of 0.01. For C8A C37G G40C, the self-cleavage was 0.04. With C8A A26G U28G the self-cleavage was 0.1. Work on C8A A24U U34C C37U yielded a self-cleavage of 0.13. For C8A G22U C42A, the self-cleavage was 0.2. For C8A G30A G40A, the self-cleavage was 1.19.
